# The list shows a part of the results.
# B1: MpAFP NterminalRI GFP (Marinomonas primoryensis) (protein)
# chain: MSDNQFPFATLGNAIGFITKLDGSVTVQSIDGQERVLKLGDPIFFGETVLTGGSGSVTIAFVDGTDVVIGGDSIVEMTDEIYNTGDNEDLVADSSSEIDALQNAILAGDDPTLIQDAPAAGNTLADQQRVDVSIERNDNSAQAGFGVDTQSSLPTYGYDTDNGNGGQATEREYSAPSLSRTLNQSPLLEHHHHHH
# How the values were obtained:
# Experiment in all cases: glycan array binding signal (z-score within array); higher = stronger binding
# Settings in all cases: glycan notation: IUPAC condensed, linker removed
# [1] = target: Neu5Ac(a2-3)Gal(b1-4)GlcNAc(b1-3)[Neu5Ac(a2-3)Gal(b1-4)GlcNAc(b1-6)]GalNAc
# Procedure, shortened: (§1)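 Negative Z-scores can be read as non-binding. The Z-score is calculated within each array and then averaged across arrays of one protein sequence at different concentrations or buffers and across linkers. Arrays, 3228 in all, were curated from the Consortium for Functional Glycomics database and kept only where the protein sequence was available.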
# [2] = target: Neu5Ac(a2-3)Gal(b1-4)GlcNAc(b1-6)GalNAc
# Procedure, shortened: as §1
# [3] = target: Neu5Ac(a2-3)Gal(b1-4)GlcNAc(b1-6)[Gal(b1-3)]GalNAc
# Procedure, shortened: as §1
# [4] = target: Neu5Ac(a2-3)Gal(b1-4)GlcNAc(b1-6)[Neu5Ac(a2-3)Gal(b1-3)]GalNAc
# Procedure, shortened: as §1
# [5] = target: Neu5Ac(a2-3)Gal(b1-4)GlcNAc6S
# Procedure, shortened: as §1
# [6] = target: Neu5Ac(a2-3)Gal(b1-4)[Fuc(a1-3)]GlcNAc
# Procedure, shortened: as §1
# [7] = target: Neu5Ac(a2-3)Gal(b1-4)[Fuc(a1-3)]GlcNAc(b1-2)Man
# Procedure, shortened: as §1
# [8] = target: Neu5Ac(a2-3)Gal(b1-4)[Fuc(a1-3)]GlcNAc(b1-3)Gal
# Procedure, shortened: as §1
# [9] = target: Neu5Ac(a2-3)Gal(b1-4)[Fuc(a1-3)]GlcNAc(b1-3)Gal(b1-4)GlcNAc
# Procedure, shortened: as §1
# [10] = target: Neu5Ac(a2-3)Gal(b1-4)[Fuc(a1-3)]GlcNAc(b1-3)Gal(b1-4)[Fuc(a1-3)]GlcNAc(b1-3)Gal(b1-4)[Fuc(a1-3)]GlcNAc
# Procedure, shortened: as §1
# [11] = target: Neu5Ac(a2-3)Gal(b1-4)[Fuc(a1-3)]GlcNAc(b1-3)GalNAc
# Procedure, shortened: as §1
# [12] = target: Neu5Ac(a2-3)Gal(b1-4)[Fuc(a1-3)]GlcNAc(b1-6)[Gal(b1-3)]GalNAc
# Procedure, shortened: as §1
# [13] = target: Neu5Ac(a2-3)Gal(b1-4)[Fuc(a1-3)]GlcNAc(b1-6)[Neu5Ac(a2-3)Gal(b1-3)]GalNAc
# Procedure, shortened: as §1
# [14] = target: Neu5Ac(a2-3)Gal(b1-4)[Fuc(a1-3)]GlcNAc6S
# Procedure, shortened: as §1
# [15] = target: Neu5Ac(a2-3)Gal6S(b1-4)GlcNAc
# Procedure, shortened: as §1
# [16] = target: Neu5Ac(a2-3)Gal6S(b1-4)[Fuc(a1-3)]GlcNAc
# Procedure, shortened: as §1
# Neu5Ac(a2-3)GalNAc = target: Neu5Ac(a2-3)GalNAc
# Procedure, shortened: as §1
# [17] = target: Neu5Ac(a2-3)GalNAc(b1-4)GlcNAc
# Procedure, shortened: as §1
# [18] = target: Neu5Ac(a2-3)[GalNAc(b1-4)]Gal(b1-4)Glc
# Procedure, shortened: as §1
# [19] = target: Neu5Ac(a2-3)[GalNAc(b1-4)]Gal(b1-4)GlcNAc
# Procedure, shortened: as §1
# [20] = target: Neu5Ac(a2-3)[GalNAc(b1-4)]Gal(b1-4)GlcNAc(b1-3)GalNAc
# Procedure, shortened: as §1
# [21] = target: Neu5Ac(a2-3)[Neu5Ac(a2-6)]GalNAc
# Procedure, shortened: as §1
# Neu5Ac(a2-6)Gal = target: Neu5Ac(a2-6)Gal
# Procedure, shortened: as §1
# [22] = target: Neu5Ac(a2-6)Gal(b1-3)GlcNAc(b1-3)[Gal(b1-4)GlcNAc(b1-6)]Gal(b1-4)Glc
# Procedure, shortened: as §1
# Neu5Ac(a2-6)Gal(b1-4)Glc = target: Neu5Ac(a2-6)Gal(b1-4)Glc
# Procedure, shortened: as §1
# [23] = target: Neu5Ac(a2-6)Gal(b1-4)GlcNAc
# Procedure, shortened: as §1
# [24] = target: Neu5Ac(a2-6)Gal(b1-4)GlcNAc(b1-2)Man
# Procedure, shortened: as §1
# [25] = target: Neu5Ac(a2-6)Gal(b1-4)GlcNAc(b1-2)Man(a1-3)Man(b1-4)GlcNAc(b1-4)GlcNAc
# Procedure, shortened: as §1
# [26] = target: Neu5Ac(a2-6)Gal(b1-4)GlcNAc(b1-2)Man(a1-3)[Gal(b1-4)GlcNAc(b1-2)Man(a1-6)]Man(b1-4)GlcNAc(b1-4)GlcNAc
# Procedure, shortened: as §1
# [27] = target: Neu5Ac(a2-6)Gal(b1-4)GlcNAc(b1-2)Man(a1-3)[GlcNAc(b1-4)][Neu5Ac(a2-6)Gal(b1-4)GlcNAc(b1-2)Man(a1-6)]Man(b1-4)GlcNAc(b1-4)GlcNAc
# Procedure, shortened: as §1
# [28] = target: Neu5Ac(a2-6)Gal(b1-4)GlcNAc(b1-2)Man(a1-3)[Man(a1-6)]Man(b1-4)GlcNAc(b1-4)GlcNAc
# Procedure, shortened: as §1
binder,measurement,setting,value
B1,glycan array binding signal (z-score),[1],-0.364
same,glycan array binding signal (z-score),[2],-0.152
same,glycan array binding signal (z-score),[3],3.31
same,glycan array binding signal (z-score),[4],-0.544
same,glycan array binding signal (z-score),[5],-0.5
same,glycan array binding signal (z-score),[6],-0.644
same,glycan array binding signal (z-score),[7],-0.506
same,glycan array binding signal (z-score),[8],-0.343
same,glycan array binding signal (z-score),[9],0.865
same,glycan array binding signal (z-score),[10],-0.065
same,glycan array binding signal (z-score),[11],1.37
same,glycan array binding signal (z-score),[12],0.24
same,glycan array binding signal (z-score),[13],0.501
same,glycan array binding signal (z-score),[14],-0.574
same,glycan array binding signal (z-score),[15],-0.608
same,glycan array binding signal (z-score),[16],-0.477
same,glycan array binding signal (z-score),Neu5Ac(a2-3)GalNAc,0.705
same,glycan array binding signal (z-score),[17],-0.287
same,glycan array binding signal (z-score),[18],-0.63
same,glycan array binding signal (z-score),[19],-0.566
same,glycan array binding signal (z-score),[20],-0.498
same,glycan array binding signal (z-score),[21],1.27
same,glycan array binding signal (z-score),Neu5Ac(a2-6)Gal,-0.417
same,glycan array binding signal (z-score),[22],-0.287
same,glycan array binding signal (z-score),Neu5Ac(a2-6)Gal(b1-4)Glc,-0.491
same,glycan array binding signal (z-score),[23],-0.56
same,glycan array binding signal (z-score),[24],-0.271
same,glycan array binding signal (z-score),[25],-0.086
same,glycan array binding signal (z-score),[26],0.187
same,glycan array binding signal (z-score),[27],-0.202
same,glycan array binding signal (z-score),[28],-0.277
